# This is one part of the list. Most values come without repeats; read them as rough.
# Tests used:
# Experiment in all cases: cell count relative to DMSO control; melanoma cells; higher = more viable cells
# Details in all cases: library dose: standard library concentration; 72 h
# [1] = tested on: SkMel28
# [2] = tested on: SkMel2
# [3] = tested on: SkMel30
# [4] = tested on: SkMel5
# [5] = tested on: UACC257
# [6] = tested on: UACC62
# [7] = tested on: WM115
# [8] = tested on: WM1716
# [9] = tested on: WM1745
# [10] = tested on: WM3526
# 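Note: cells treated in 1,536-well plates, then fixed and DAPI-stained, with nuclei counted from automated high-throughput microscope images.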
Structure (SMILES),cell count [1] [%],cell count [2] [%],cell count [3] [%],cell count [4] [%],cell count [5] [%],cell count [6] [%],cell count [7] [%],cell count [8] [%],cell count [9] [%],cell count [10] [%]
"CS(=O)(=O)c1ccc(C(=O)Nc2ccc(Cl)c(-c3ccccn3)c2)c(Cl)c1 [vismodegib] + O=C(O)c1ccc(-c2c[nH]c3ncc(-c4ccccc4)cc23)cc1C1CCCC1 [GSK650394] (first compound 5 µM, partner dose 0.8 µM)",115,75.7,113,77.6,79.3,84.6,95.9,87.3,76.7,76.4
"CN(c1ncccc1CNc1nc(Nc2ccc3c(c2)CC(=O)N3)ncc1C(F)(F)F)S(C)(=O)=O + O=C(Nc1cccc(Cl)c1)Nc1ncc(CCNc2ncnc3ccsc23)s1 [SNS314] (first compound 0.4 µM, partner dose 0.004 µM)",50.1,70.6,90.3,58.5,59.1,67.9,30,60.2,41.7,77.1
"CS(=O)(=O)c1ccc(C(=O)Nc2ccc(Cl)c(-c3ccccn3)c2)c(Cl)c1 [vismodegib] + COc1cc2c(Oc3ccc4[nH]c(C)cc4c3F)ncnc2cc1OCCCN1CCCC1 [cediranib] (first compound 5 µM, partner dose 2 µM)",127,94.6,91.2,88.5,97.1,131,118,108,81.5,90.7
"CS(=O)(=O)c1ccc(C(=O)Nc2ccc(Cl)c(-c3ccccn3)c2)c(Cl)c1 [vismodegib] + CCCCCCCCc1ccc(CCC(N)(CO)CO)cc1 [fingolimod] (first compound 5 µM, partner dose 10 µM)",0.516,0.299,9.44,34.7,62.2,13.3,12.2,27.2,2.22,29.1
"C=C(c1ccc(C(=O)O)cc1)c1cc2c(cc1C)C(C)(C)CCC2(C)C [Bexarotene] + CN(NC(=O)CC(=O)NN(C)C(=S)c1ccccc1)C(=S)c1ccccc1 [STA4783] (first compound 10 µM, partner dose 0.03 µM)",38.8,66.9,94.6,60.8,92,50.8,27.4,83.6,25.5,103
"NC1(c2ccc(-c3nc4ccn5c(=O)[nH]nc5c4cc3-c3ccccc3)cc2)CCC1 + NCC(=O)Nc1ccc(-n2nc(C(F)(F)F)cc2-c2ccc3c(ccc4ccccc43)c2)cc1 [OSU03012] (first compound 2 µM, partner dose 5 µM)",34,39.7,41.6,57.4,75.6,61.3,75,96.4,101,47.4
"NC1(c2ccc(-c3nc4ccn5c(=O)[nH]nc5c4cc3-c3ccccc3)cc2)CCC1 + O=C(O)c1ccc(-c2c[nH]c3ncc(-c4ccccc4)cc23)cc1C1CCCC1 [GSK650394] (first compound 2 µM, partner dose 0.8 µM)",53.9,62.5,109,57.4,86.3,76.7,95.2,94.9,83.5,71.3
"CN(c1ncccc1CNc1nc(Nc2ccc3c(c2)CC(=O)N3)ncc1C(F)(F)F)S(C)(=O)=O + O=C(O)c1ccc2c(c1)nc(Nc1cccc(Cl)c1)c1ccncc12 [CX4945] (first compound 0.4 µM, partner dose 2 µM)",65.2,64.9,75.6,94.9,69.3,82.7,77.8,67.5,54.3,81.2
"CN(c1ncccc1CNc1nc(Nc2ccc3c(c2)CC(=O)N3)ncc1C(F)(F)F)S(C)(=O)=O + Clc1ccc(Nc2nnc(Cc3ccncc3)c3ccccc23)cc1 [vatalanib] (first compound 0.4 µM, partner dose 10 µM)",58,70.2,72.3,38.8,69.2,60.5,64.4,73.4,32.7,68
"C=C(c1ccc(C(=O)O)cc1)c1cc2c(cc1C)C(C)(C)CCC2(C)C [Bexarotene] + Cc1nc(Nc2ncc(C(=O)Nc3c(C)cccc3Cl)s2)cc(N2CCN(CCO)CC2)n1 [dasatanib] (first compound 10 µM, partner dose 0.02 µM)",57.9,103,109,72.6,81.9,74,102,54.4,42.5,79.1
"CCCS(=O)(=O)Nc1ccc(F)c(C(=O)c2c[nH]c3ncc(Cl)cc23)c1F + C[C@]1(c2nc3c(C(N)=O)cccc3[nH]2)CCCN1 [Veliparib] (first compound 0.4 µM, partner dose 7 µM)",41.4,79.1,80,75.2,86.6,53.2,75.8,63.1,73.8,54.1
